The other results are listed elsewhere or left out. Repeats are few or missing, and single values can be far off.
system: RPMI7951; assay: cell count relative to DMSO control; melanoma cells; higher = more viable cells; settings: library dose: low library concentration; 72 h
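Further: cell number obtained by counting DAPI-stained nuclei in high-throughput microscope images with image analysis software, screen run in 1,536-well plates.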

SMILES	cell count [%]
C[C@]12O[C@H](C[C@]1(O)CO)n1c3ccccc3c3c4c(c5c6ccccc6n2c5c31)CNC4=O [Lestaurtinib] + OCc1c[nH]c2ccccc12 [Indole-3-carbinol] (first compound 0.004 µM, partner dose 0.8 µM)	126
C[C@]12O[C@H](C[C@]1(O)CO)n1c3ccccc3c3c4c(c5c6ccccc6n2c5c31)CNC4=O [Lestaurtinib] + CO[C@H]1C[C@@H]2CC[C@@H](C)[C@@](O)(O2)C(=O)C(=O)N2CCCC[C@H]2C(=O)O[C@H]([C@H](C)C[C@@H]2CC[C@@H](OCCO)[C@H](OC)C2)CC(=O)[C@H](C)/C=C(\C)[C@@H](O)[C@@H](OC)C(=O)[C@H](C)C[C@H](C)/C=C/C=C/C=C/1C [everolimus] (first compound 0.004 µM, partner dose 0.02 µM)	87.9
C[C@]12O[C@H](C[C@]1(O)CO)n1c3ccccc3c3c4c(c5c6ccccc6n2c5c31)CNC4=O [Lestaurtinib] + Cn1c(=O)n(-c2ccc(C(C)(C)C#N)cc2)c2c3cc(-c4cnc5ccccc5c4)ccc3ncc21 [NVP-BEZ235] (first compound 0.004 µM, partner dose 0.004 µM)	108
C[C@]12O[C@H](C[C@]1(O)CO)n1c3ccccc3c3c4c(c5c6ccccc6n2c5c31)CNC4=O [Lestaurtinib] + Nc1ccn([C@@H]2O[C@H](CO)[C@@H](O)C2(F)F)c(=O)n1 [gemcitabine] (first compound 0.004 µM, partner dose 0.0004 µM)	79.8
